Measured values taken from article PMC13038412, “Hetero-oligomerization drives structural plasticity of eukaryotic peroxiredoxins” (Nature Chemical Biology, 2026).
These are yes or no findings as the source states them, for the method shown. For some assays here: Binding seen in cells or lysates may run through a third protein. Some binding calls cover weakened binding; strength is not graded here. Tags and fused reporters may be left off the sequences shown. Each block holds one binder with its values, some of them ahead of it.

How the values were obtained:
His6-Tsa2 [1] = target: T1, His6-Tsa2 (S. cerevisiae, UniProt Q04120 1-196); assay: pull-down; both genes coexpressed from one pCOLADuet plasmid in E. coli; tandem-affinity purification Ni-NTA then StrepTactin, or vice versa; eluates on reducing SDS-PAGE, western blot (semiquantitative, calibrated with individually purified proteins)
T1 construct: Tsa2, Prx1/AhpC-type peroxiredoxin of Saccharomyces cerevisiae; TSA2 from pET15b/His6-TSA2; calculated mass of His6-Tsa2 23.8 kDa; also called His6-tagged Tsa2; His-Tsa2; source: E. coli SHuffle T7 Express, purified (Ni-NTA) from pET15b; or coexpressed with Strep-Tsa1 / Strep-Tsa1ΔCR from pCOLADuet and tandem purified (Ni-NTA, StrepTactin); not shown: His6, N-terminal, kept
T1 sequence (looked up): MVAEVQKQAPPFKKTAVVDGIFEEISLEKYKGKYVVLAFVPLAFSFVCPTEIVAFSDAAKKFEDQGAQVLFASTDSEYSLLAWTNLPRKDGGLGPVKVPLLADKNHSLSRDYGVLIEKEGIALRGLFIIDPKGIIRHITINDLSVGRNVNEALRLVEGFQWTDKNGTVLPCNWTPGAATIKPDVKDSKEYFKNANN

His6-Tsa2 [2] = target: T1, His6-Tsa2; assay: condition: only individually purified proteins mixed at a 1:1 molar ratio (not coexpressed); pull-down; individually purified proteins mixed at a 1:1 molar ratio; tandem-affinity purification with Ni-NTA agarose followed by StrepTactin agarose beads; both purified
[3] = target: T2, roGFP2-Tsa2 (S. cerevisiae) (UniProt Q04120); assay: native gel or EMSA; clear native PAGE (3-12%) of yeast lysates, imaged for GFP fluorescence; roGFP2 fusions expressed from the genomic loci; cells untreated or treated with 1 mM H2O2 for the indicated times; lysis with 20 mM NEM
T2 sequence: T1 sequence (looked up)

[4] = target: T3, roGFP2-Tsa1 (S. cerevisiae) (UniProt P34760); assay: as above
T3 sequence: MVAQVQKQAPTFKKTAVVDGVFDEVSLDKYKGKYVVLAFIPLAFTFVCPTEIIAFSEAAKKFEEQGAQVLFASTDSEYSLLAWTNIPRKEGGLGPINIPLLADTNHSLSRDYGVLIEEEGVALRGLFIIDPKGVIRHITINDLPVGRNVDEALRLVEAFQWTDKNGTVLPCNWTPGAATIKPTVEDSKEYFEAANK

His6-Tsa2 [5] = target: T1, His6-Tsa2; assay: pull-down + other: nonreducing SDS-PAGE of disulfide-linked dimers; coexpressed in E. coli, tandem-affinity copurification; samples treated with 10 mM NEM, nonreducing SDS-PAGE, western blot

B1: Strep-Tsa1 (enzyme, S. cerevisiae, UniProt P34760 1-196, looked up)
chain: T3 sequence
notes: Tsa1, Prx1/AhpC-type peroxiredoxin of Saccharomyces cerevisiae; TSA1 subcloned from pET15b/His-TSA1; calculated mass of Strep-Tsa1 22.9 kDa; Dimer-decamer equilibrium; also called Strep-tagged Tsa1; Tsa1 homo-oligomer; source: E. coli SHuffle T7 Express, purified (StrepTactin) from pET45b; or coexpressed with His6-Tsa2 / His6-Tsa2-EPEA from pCOLADuet-1 and tandem purified (Ni-NTA, StrepTactin); …
binding (His6-Tsa2 [1]): binds | binding (His6-Tsa2 [2]): no binding

B3: Tsa2 (untagged, in yeast) (enzyme, UniProt Q04120 1-196)
chain: T1 sequence (looked up)
binding [4]: binds

Further lines, results first:

binding [3]: binds
B2: Tsa1 (untagged, in yeast) (enzyme, UniProt P34760 1-196)
chain: T3 sequence

binding (His6-Tsa2 [5]): binds
B4: His6-Tsa2 (enzyme, UniProt Q04120 1-196)
chain: T1 sequence (looked up)
